Assay results published in article PMC6794377.
Results are given in words; binding and its absence hold for the method and conditions named. In cells and extracts the contact can be indirect. Some entries that bind do so weakly or less than the wild type. Where a sequence is shown, tags or fusion partners need not be part of it.

Experiments:
Experiment in all cases: co-IP; FLAG-tagged hThrRS-L or mutant expressed in HeLa cells; IP with anti-FLAG; endogenous partners detected by western blotting
[1] = target: T1, hThrRS-L-T449D with a C-terminal FLAG tag (human) (UniProt A2RTX5)
T1 sequence: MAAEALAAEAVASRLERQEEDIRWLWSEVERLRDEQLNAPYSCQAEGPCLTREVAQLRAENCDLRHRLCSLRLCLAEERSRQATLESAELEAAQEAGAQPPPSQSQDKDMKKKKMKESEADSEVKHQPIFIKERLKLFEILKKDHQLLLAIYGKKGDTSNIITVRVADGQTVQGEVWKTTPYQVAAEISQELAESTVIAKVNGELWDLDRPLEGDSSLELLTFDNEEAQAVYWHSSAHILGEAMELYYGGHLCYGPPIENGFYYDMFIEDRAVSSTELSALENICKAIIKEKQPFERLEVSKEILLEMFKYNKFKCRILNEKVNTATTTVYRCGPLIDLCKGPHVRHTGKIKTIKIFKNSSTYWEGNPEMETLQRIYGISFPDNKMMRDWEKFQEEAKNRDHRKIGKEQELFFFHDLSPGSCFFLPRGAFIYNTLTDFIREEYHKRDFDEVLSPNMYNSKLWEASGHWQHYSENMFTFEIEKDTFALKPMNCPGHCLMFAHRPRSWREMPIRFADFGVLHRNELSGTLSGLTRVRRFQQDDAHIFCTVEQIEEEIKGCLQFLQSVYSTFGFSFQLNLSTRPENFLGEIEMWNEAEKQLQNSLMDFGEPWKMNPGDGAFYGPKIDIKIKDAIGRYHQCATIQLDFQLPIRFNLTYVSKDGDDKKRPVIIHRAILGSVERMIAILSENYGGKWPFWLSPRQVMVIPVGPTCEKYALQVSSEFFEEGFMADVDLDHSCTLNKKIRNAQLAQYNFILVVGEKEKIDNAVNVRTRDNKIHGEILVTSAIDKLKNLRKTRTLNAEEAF

[2] = target: T2, hThrRS-L-S459D with a C-terminal FLAG tag (human) (UniProt A2RTX5)
T2 sequence: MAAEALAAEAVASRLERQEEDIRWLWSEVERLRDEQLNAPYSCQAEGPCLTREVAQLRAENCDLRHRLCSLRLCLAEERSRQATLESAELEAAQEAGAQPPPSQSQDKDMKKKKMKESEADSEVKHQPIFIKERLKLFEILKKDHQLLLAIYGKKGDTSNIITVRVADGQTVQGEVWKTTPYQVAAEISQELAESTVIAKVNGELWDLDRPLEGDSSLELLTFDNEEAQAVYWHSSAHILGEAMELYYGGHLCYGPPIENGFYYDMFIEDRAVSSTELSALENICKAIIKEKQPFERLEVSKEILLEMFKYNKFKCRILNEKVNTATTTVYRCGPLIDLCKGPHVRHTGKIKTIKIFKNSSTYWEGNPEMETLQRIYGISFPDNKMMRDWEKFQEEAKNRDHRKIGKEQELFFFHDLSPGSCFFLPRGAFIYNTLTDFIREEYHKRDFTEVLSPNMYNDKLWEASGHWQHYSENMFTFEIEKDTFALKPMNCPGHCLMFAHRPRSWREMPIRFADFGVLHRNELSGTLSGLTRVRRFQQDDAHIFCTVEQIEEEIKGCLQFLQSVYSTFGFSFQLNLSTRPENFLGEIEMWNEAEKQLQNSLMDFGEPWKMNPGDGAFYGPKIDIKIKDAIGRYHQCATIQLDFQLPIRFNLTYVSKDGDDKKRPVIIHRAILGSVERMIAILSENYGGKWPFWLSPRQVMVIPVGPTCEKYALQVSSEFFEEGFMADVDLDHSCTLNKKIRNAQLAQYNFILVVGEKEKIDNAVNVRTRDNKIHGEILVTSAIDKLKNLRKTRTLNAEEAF

[3] = target: T3, hThrRS-L-T163D with a C-terminal FLAG tag (human) (UniProt A2RTX5)
T3 sequence: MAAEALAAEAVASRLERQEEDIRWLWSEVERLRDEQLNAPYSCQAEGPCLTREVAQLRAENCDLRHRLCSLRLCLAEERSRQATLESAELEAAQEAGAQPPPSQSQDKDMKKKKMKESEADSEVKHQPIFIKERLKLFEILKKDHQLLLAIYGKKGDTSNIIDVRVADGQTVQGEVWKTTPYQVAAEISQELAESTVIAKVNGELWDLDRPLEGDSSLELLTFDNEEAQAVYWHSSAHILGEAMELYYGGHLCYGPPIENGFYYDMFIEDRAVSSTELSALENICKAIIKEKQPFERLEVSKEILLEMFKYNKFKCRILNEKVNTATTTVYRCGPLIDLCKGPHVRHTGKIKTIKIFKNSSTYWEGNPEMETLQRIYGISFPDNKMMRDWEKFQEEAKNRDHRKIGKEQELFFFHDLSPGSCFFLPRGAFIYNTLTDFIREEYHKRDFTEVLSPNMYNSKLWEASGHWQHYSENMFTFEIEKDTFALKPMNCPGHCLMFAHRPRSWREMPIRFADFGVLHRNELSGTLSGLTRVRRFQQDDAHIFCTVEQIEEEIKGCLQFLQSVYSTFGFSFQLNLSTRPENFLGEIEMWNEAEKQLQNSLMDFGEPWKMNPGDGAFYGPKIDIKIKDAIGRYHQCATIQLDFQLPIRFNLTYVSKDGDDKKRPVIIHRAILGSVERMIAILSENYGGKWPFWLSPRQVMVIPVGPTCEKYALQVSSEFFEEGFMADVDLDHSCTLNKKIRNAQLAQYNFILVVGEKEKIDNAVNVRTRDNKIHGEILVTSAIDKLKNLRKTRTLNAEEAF

Measured: binding

B1: native p43 (AIMP1), endogenous in human cells (protein, UniProt Q12904-2 1-336)
chain: MLPAVAVSEPVVLRFMIFCRLLAKMANNDAVLKRLEQKGAEADQIIEYLKQQVSLLKEKAILQATLREEKKLRVENAKLKKEIEELKQELIQAEIQNGVKQIPFPSGTPLHANSMVSENVIQSTAVTTVSSGTKEQIKGGTGDEKKAKEKIEKKGEKKEKKQQSIAGSADSKPIDVSRLDLRIGCIITARKHPDADSLYVEEVDVGEIAPRTVVSGLVNHVPLEQMQNRMVILLCNLKPAKMRGVLSQAMVMCASSPEKIEILAPPNGSVPGDRITFDAFPGEPDKELNPKKKIWEQIQPDLHTNDECVATYKGVPFEVKGKGVCRAQTMSNSGIK
binds: all assays above

B2: ArgRS, endogenous in human cells (enzyme, UniProt P54136 1-660)
chain: MDVLVSECSARLLQQEEEIKSLTAEIDRLKNCGCLGASPNLEQLQEENLKLKYRLNILRKSLQAERNKPTKNMINIISRLQEVFGHAIKAAYPDLENPPLLVTPSQQAKFGDYQCNSAMGISQMLKTKEQKVNPREIAENITKHLPDNECIEKVEIAGPGFINVHLRKDFVSEQLTSLLVNGVQLPALGENKKVIVDFSSPNIAKEMHVGHLRSTIIGESISRLFEFAGYDVLRLNHVGDWGTQFGMLIAHLQDKFPDYLTVSPPIGDLQVFYKESKKRFDTEEEFKKRAYQCVVLLQGKNPDITKAWKLICDVSRQELNKIYDALDVSLIERGESFYQDRMNDIVKEFEDRGFVQVDDGRKIVFVPGCSIPLTIVKSDGGYTYDTSDLAAIKQRLFEEKADMIIYVVDNGQSVHFQTIFAAAQMIGWYDPKVTRVFHAGFGVVLGEDKKKFKTRSGETVRLMDLLGEGLKRSMDKLKEKERDKVLTAEELNAAQTSVAYGCIKYADLSHNRLNDYIFSFDKMLDDRGNTAAYLLYAFTRIRSIARLANIDEEMLQKAARETKILLDHEKEWKLGRCILRFPEILQKILDDLFLHTLCDYIYELATAFTEFYDSCYCVEKDRQTGKILKVNMWRMLLCEAVAAVMAKGFDILGIKPVQRM
binds: all assays above
